# Results published in publication PMC4336329 (PLoS ONE, 2015).
# About 14,000 (4.5%) of roughly 310,000 compounds showed an effect of 50% or more. The effect is printed as a negative number. The list shows a part of the results.
# Target: human ether-à-go-go-related gene (hERG) potassium channel (human, UniProt Q12809)
# Test: primary screen, population patch clamp on CHO cells stably expressing hERG
# 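Further: peak tail current of the secondary pulse compared with the same well before compound.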
# Sequence of human ether-à-go-go-related gene (hERG) potassium channel (Q12809 whole entry, looked up): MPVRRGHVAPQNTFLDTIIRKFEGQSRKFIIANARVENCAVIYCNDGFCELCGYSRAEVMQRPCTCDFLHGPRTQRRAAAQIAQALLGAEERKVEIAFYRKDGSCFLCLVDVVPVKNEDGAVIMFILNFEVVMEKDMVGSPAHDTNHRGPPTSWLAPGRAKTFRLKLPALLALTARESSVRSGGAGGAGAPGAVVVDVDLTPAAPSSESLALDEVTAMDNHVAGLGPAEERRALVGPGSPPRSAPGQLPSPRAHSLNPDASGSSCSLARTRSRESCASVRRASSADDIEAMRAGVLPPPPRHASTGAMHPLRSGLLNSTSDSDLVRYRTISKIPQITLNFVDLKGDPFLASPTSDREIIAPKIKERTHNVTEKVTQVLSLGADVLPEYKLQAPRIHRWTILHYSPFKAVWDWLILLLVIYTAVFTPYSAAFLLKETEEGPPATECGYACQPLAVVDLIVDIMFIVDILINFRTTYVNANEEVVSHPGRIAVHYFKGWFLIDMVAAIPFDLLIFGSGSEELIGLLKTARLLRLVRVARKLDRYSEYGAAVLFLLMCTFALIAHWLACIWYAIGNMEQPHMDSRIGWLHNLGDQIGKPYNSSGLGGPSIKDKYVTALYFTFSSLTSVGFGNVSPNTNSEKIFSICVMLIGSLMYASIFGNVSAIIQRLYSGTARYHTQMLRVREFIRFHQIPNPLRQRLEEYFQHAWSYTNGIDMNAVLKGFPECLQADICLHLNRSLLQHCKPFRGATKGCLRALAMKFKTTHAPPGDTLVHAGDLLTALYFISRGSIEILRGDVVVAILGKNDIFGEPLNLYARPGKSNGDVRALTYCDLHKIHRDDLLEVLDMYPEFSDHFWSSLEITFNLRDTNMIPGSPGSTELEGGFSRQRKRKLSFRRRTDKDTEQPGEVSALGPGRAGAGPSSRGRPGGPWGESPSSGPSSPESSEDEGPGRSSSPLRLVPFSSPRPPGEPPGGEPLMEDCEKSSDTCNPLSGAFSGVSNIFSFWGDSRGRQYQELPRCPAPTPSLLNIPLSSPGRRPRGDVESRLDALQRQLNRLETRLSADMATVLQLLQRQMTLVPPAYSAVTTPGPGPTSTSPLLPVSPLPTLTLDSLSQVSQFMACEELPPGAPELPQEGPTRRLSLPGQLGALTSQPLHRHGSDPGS
row,Structure (SMILES),"hERG current change (%, negative = inhibition) at 10uM"
1,COC(=O)c1ccc(NC(=S)N2CCN(CCO)CC2)cc1,13.7%
2,O=C(NC1CC1)C(Cc1ccccc1)NS(=O)(=O)c1ccccc1F (stereo not drawn),22.7%
3,O=C(CSc1nc2ccccc2nc1N1CCCCC1)Nc1ccc(F)cc1,-2.86%
4,Cc1cc(OCCCCCNCCO)ccc1Cl,-18.2%
5,Fc1ccccc1/C=N/Nc1ccc(Cl)nn1,-5.48%
6,COC(=O)c1[nH]c(=O)c2ccccc2c1O,19.4%
7,CN(C)CC1CCCCC1OC(=O)Cc1ccc(Cl)c([N+](=O)[O-])c1 (stereo not drawn),-8.77%
8,CC12CCC(C/C1=N\OC(=O)c1c(F)cccc1F)C2(C)C (stereo not drawn),-0.495%
9,CNC(=S)Nc1ccc(OCc2ccccc2)cc1,7.41%
10,COc1cccc2c1OCC/C2=N\NC(=O)COc1ccccc1C,-19.3%
11,COc1ccc(C(C)(C)C)cc1NC(=O)CCNC(=O)c1ccco1,-4.87%
12,c1nc2n(n1)C1=C(CCCC1)C1(CCCCC1)N2,20.7%
13,C#CCN(C(=O)Nc1ccccc1)c1ccccc1,9.62%
14,C/C(CCC(C)C)=N\NS(=O)(=O)c1ccc(C)c([N+](=O)[O-])c1,-16.6%
15,Cc1cc(Br)c(NC(=O)COC(=O)C2CC2C)c(Br)c1 (stereo not drawn),-3.06%
16,Cc1c(C(=O)O)oc2c(F)cccc12,14.4%
17,Cc1ccc(NCCC(=O)c2cccs2)cc1C,0.601%
18,CCOC(=O)c1c(C)c2c(=O)[nH]cnc2n1-c1ccccc1,12.9%
19,Cc1ccccc1-n1c(C)nc2ccccc21,-5.01%
20,CC(=O)N1CCN(C(=S)NCc2ccccc2)CC1,6.27%
21,CC1=CCC2C(=O)N(c3cccc(C(=O)Nc4ccccc4Cl)c3)C(=O)C2C1 (stereo not drawn),20.9%
22,O=C(NCc1ccco1)C(c1ccco1)N(C(=O)Cn1nnc2ccccc21)c1ccc2c(c1)CCC2 (stereo not drawn),-27%
23,COc1cccc(CC2(CO)CCCN(Cc3cn[nH]c3-c3ccccc3)C2)c1 (stereo not drawn),-49.9%

row,Structure (SMILES),"hERG current change (%, negative = inhibition) at 10uM"
1,CO/N=C/C(C#N)=C/c1ccc(OC)c(OC)c1,15%
2,CCOC(=O)CN1N=C(/C=C/c2ccccc2)CCC1=O,-17.2%
3,COc1ccccc1CN1CC(C(=O)N(C)Cc2ccncc2C)CCC1=O (stereo not drawn),-6.48%
4,O=C(c1ccccc1)c1cc2ccccc2o1,-1.57%
5,COc1ccc(-n2nc3c(c2NC(=O)c2ccc(Br)cc2)CS(=O)C3)cc1 (stereo not drawn),-50.8%
6,Cc1nc2ncnn2c(C)c1CCC(=O)NCCCN1CCN(c2cccc(Cl)c2)CC1,-37.7%
7,COc1cc(/C=C2\SC(=S)N(N3CCOCC3)C2=O)ccc1O,-2.59%
8,O=C(NC1CCCCC1)Oc1cc2oc(=O)sc2cc1Cl,1.4%
9,COc1ccc(-c2noc(CSc3nnc(Cc4ccccc4)n3-c3cccc(C)c3)n2)cc1OC,-11.1%
10,O=C(NNC(=O)C1COc2ccccc2O1)c1ccccc1 (stereo not drawn),-1.85%
11,CC(C)C(NC(=O)c1ccccc1F)C(=O)NCCc1ccccn1 (stereo not drawn),28%
12,CCC1C(=O)NCCN1C(=O)c1ccc2nc(Cc3ccc(OC)cc3)oc2c1 (stereo not drawn),12.5%
13,CCc1cccc(NC2c3ccccc3C(=O)N2c2cccnc2)c1 (stereo not drawn),-10.2%
14,CC(=NCCC1=CCCCC1)c1c(O)n(-c2ccccc2)c(=O)[nH]c1=O,4.58%
15,O=C(N/C(=C\c1ccc(Cl)cc1)C(=O)N1CCCCC1)c1ccco1,11.8%
16,CCC(C(=O)NCCC(C)C)N(Cc1ccccc1Cl)C(=O)c1snc(C(N)=O)c1N (stereo not drawn),0.692%
17,C=CCNCc1cccn1-c1sc2c(c1C#N)CCCC2,-28.6%
18,O=C(CCCC(=O)OCC(=O)c1ccc(F)cc1)Nc1cc(C(F)(F)F)ccc1Cl,8.25%
19,CNC(=O)CC1C(=O)N(c2ccc(Cl)cc2)C(=S)N1NC(=O)c1cccc(F)c1 (stereo not drawn),12.5%
20,COc1ccc(-c2nn(CCC#N)cc2/C=N/O)cc1,7.01%
21,COC(=O)CSc1nc(SCc2ccc(C)cc2)nc2c1CCCC2,2.84%
22,Cn1c(N)c(C(=O)Nc2c(Cl)cccc2Cl)sc1=S,12.8%
23,O=C(NC(Cc1ccccc1)C(=O)NCCc1ccccn1)c1ccccc1 (stereo not drawn),6.5%

row,Structure (SMILES),"hERG current change (%, negative = inhibition) at 10uM"
1,COc1ccc(CCN(C)C2CCCN(S(=O)(=O)c3ccc(C)cc3)C2)cc1OC (stereo not drawn),-78%
2,C/C(=N/OC(=O)c1ccc(C)cc1)c1cccs1,0.459%
3,CC(C)CN(C(=O)CC(C)c1ccccc1)c1c(N)n(Cc2ccccc2)c(=O)[nH]c1=O (stereo not drawn),4.12%
4,CSc1nc(NC(C)C)nc(N2CCOCC2)n1,-4.81%
5,CCNC(=O)COC(=O)c1cc(-c2ccccc2)nn1-c1ccccc1,-61.8%
6,Cc1ccc(/C=N/Nc2cccc(C(=O)O)c2)s1,35.7%
7,C(=N\Nc1ccccc1)/c1nc2ccccc2s1,3.75%
8,Cl.N=c1sccn1Cc1ccc(Cl)cc1Cl,-24.2%
9,Cc1ccc(OCCC(=O)OCC(=O)c2c(N)n(C)c(=O)n(C)c2=O)cc1,-58.3%
10,COCCn1c(SCC(=O)Nc2cc(C)cc(C)c2)nc2ccccc2c1=O,-43.2%
11,Cc1cccc(-n2c(O)c(C=Nc3ccc(S(N)(=O)=O)cc3)c(=O)[nH]c2=O)c1,33%
12,Cc1sc2nc(-c3cccnc3)nc(Cl)c2c1-c1ccccc1,1.93%
13,CCS(=O)(=O)N1Cc2ccccc2CC1C(=O)Nc1nc2ccccc2[nH]1 (stereo not drawn),-29.3%
14,C/C(CC(=O)Nc1ccc(C)c(Cl)c1)=N\NC(=O)c1ccco1,-24.1%
15,Cc1c(NS(=O)(=O)c2ccc(Cl)c(C(=O)OCC(=O)NCc3ccco3)c2)c(=O)n(-c2ccccc2)n1C,-51.9%
16,O=c1ccc2ccc(Oc3ccc([N+](=O)[O-])cc3[N+](=O)[O-])cc2o1,-40.3%
17,Cc1cc(C(=O)N/N=C\c2cc(C(C)(C)C)c(O)c(C(C)(C)C)c2)n[nH]1,2.28%
18,CCc1nnc(NC(=O)COc2ccc([N+](=O)[O-])cc2)s1,11.2%
19,Cc1c(N)cc[n+](CC(=O)c2ccccc2)c1C.[Br-],16.4%
20,O=C(NC1CCCCC1)c1ccc2c(c1)S(=O)(=O)c1ccccc1C2=O,3.57%
21,CCCCCCC(=O)N(O)C1CC(=O)N(c2ccc(Cl)cc2)C1=O (stereo not drawn),4.46%
22,Br.N=c1n(CC(=O)c2ccc([N+](=O)[O-])cc2)c2ccccc2n1Cc1ccccc1,-70.1%
23,Cc1ccc(-c2cc(C(F)F)n3ncc(C(=O)N4CCC5(CC4)OCCO5)c3n2)cc1,-18.9%

row,Structure (SMILES),"hERG current change (%, negative = inhibition) at 10uM"
1,COc1ccc(S(=O)(=O)N(C)CC(=O)NCCN2CCOCC2)cc1C,23.8%
2,COc1ccc(C(=O)Nc2ccc(OC)c(OC)c2)cc1,3.98%
3,COc1ccc(CCNC(=O)CN2C(=O)NC(Cc3c[nH]c4ccccc34)C2=O)cc1 (stereo not drawn),-0.343%
4,CCc1ccc(NCc2nc(-c3ccccc3)no2)cc1,-14.6%
5,O=C(CN1C(=O)C2CCCCC2C1=O)Nc1nc(-c2ccc(F)cc2)cs1 (stereo not drawn),5.21%
6,CCC1(CC)NC(=O)N(CC(=O)N2N=C(c3ccc(Cl)cc3)CC2c2ccco2)C1=O (stereo not drawn),12%
7,O=C(Cn1cnnn1)Nc1cccc([N+](=O)[O-])c1,-1.13%
8,Cc1ccc(C(=O)c2c3ccc(C(F)(F)F)cc3[n+]([O-])n2CCCC(N)=O)cc1,-62.9%
9,COc1ccc(-c2noc(CCC(=O)NCCCN3CCN(c4ccc(F)cc4)CC3)n2)cc1,-67.4%
10,O=C(N/N=C/c1cc(Br)c(Br)o1)C(O)c1ccccc1 (stereo not drawn),2.58%
11,COc1ccc(S(=O)(=O)N(CC(=O)N2CCCC2)Cc2ccccc2)cc1,-21.8%
12,CCNc1ccc(C(=O)OCC)cc1NC(=O)c1cccc(S(=O)(=O)N2CCOCC2)c1,-3.02%
13,O=C(CSc1ccccc1C(=O)O)NC12CC3CC(CC(C3)C1)C2,16.6%
14,CS(=O)(=O)N(CC(=O)N1CCN(c2cccc(Cl)c2)CC1)c1ccccc1,-2.44%
15,CC(=O)c1sc(NC(=O)CCCOc2ccccc2C)nc1C,20.8%
16,Cc1nc(CSc2nnc3scc(-c4ccc(Cl)cc4)n23)cs1,-1.39%
17,CCOC(=O)c1[nH]c2ccccc2c1NC(=S)Nc1cccc(C)c1,9.82%
18,CC(C)Oc1ccc(CNC(=O)Cn2c(=O)c3cccn3c3cccnc32)cc1,-9.4%
19,COc1cc(Cl)c(C)cc1NC(=O)c1ccc2c(c1)OCO2,19%
20,COc1ccc(Cn2cnc3c([N+](=O)[O-])c(C)c(C)cc32)cc1,-31.4%
21,CCOC(=O)[C@H]1[C@H]2COc3cc(OC)ccc3[C@@H]2N2C(=O)c3ccc(F)cc3NC(=O)[C@@]12C,5.46%
